Hit rate of the full screen: of about 310,000 compounds, about 2,200 (0.71%) showed an effect of 50% or more. The effect is printed as a negative number. Some of the results follow.
Molecular target: human ether-à-go-go-related gene (hERG) potassium channel (human, UniProt Q12809)
Experiment: primary screen, population patch clamp on CHO cells stably expressing hERG

human ether-à-go-go-related gene (hERG) potassium channel, sequence (Q12809 whole entry, looked up): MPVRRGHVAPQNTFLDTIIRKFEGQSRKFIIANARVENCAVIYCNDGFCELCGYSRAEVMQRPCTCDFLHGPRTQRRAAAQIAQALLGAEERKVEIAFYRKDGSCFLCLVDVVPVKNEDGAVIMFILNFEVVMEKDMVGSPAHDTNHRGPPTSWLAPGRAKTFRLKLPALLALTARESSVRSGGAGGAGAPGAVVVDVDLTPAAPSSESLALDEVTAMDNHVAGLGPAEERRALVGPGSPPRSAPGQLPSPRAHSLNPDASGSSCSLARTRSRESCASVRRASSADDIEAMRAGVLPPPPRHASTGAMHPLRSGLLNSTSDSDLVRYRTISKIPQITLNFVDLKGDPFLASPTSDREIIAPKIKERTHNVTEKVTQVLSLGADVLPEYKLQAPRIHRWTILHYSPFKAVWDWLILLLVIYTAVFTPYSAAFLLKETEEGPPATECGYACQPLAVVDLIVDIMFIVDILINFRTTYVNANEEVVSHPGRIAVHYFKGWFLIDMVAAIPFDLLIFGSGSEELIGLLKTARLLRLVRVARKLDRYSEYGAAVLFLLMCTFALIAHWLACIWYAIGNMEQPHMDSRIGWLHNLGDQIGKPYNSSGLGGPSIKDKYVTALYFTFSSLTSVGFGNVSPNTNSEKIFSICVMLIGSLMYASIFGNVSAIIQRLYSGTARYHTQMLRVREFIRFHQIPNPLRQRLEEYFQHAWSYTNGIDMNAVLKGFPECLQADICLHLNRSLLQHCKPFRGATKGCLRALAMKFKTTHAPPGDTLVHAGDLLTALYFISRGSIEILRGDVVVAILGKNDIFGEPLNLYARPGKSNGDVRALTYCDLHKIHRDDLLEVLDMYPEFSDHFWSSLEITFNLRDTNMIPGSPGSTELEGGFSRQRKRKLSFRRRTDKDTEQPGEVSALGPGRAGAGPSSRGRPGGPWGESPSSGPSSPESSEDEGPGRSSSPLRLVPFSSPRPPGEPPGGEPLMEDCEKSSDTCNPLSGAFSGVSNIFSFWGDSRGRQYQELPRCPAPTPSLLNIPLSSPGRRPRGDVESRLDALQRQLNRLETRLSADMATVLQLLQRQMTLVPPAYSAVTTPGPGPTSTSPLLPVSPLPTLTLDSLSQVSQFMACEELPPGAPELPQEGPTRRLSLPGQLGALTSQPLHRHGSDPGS

| Structure (SMILES) | hERG current change (%, negative = inhibition) at 1uM [%] |
| --- | --- |
| CCN1CCN(CCNC(=O)CS(=O)(=O)Cc2nc(-c3ccc(C)cc3)oc2C)CC1 | 14.4 |
| Cc1ccc(CNC(=O)C(C)OC(=O)c2cccs2)cc1 (stereo not shown) | 15.9 |
| O=C(CCCNC(=O)c1ccc(Cl)cc1)NCc1ccccc1F | -0.415 |
| Cc1ccc(C(=O)NC(=S)NNS(=O)(=O)c2ccc(C)cc2)cc1 | 9.78 |
| NC1=NC(=O)/C(=C\c2cc([N+](=O)[O-])ccc2Cl)S1 | -1.77 |
| CC(=O)c1cc(C#N)c(NCc2ccccc2)nc1C | 1.14 |
| O=C(COC(=O)C12CC3CC(CC(O)(C3)C1)C2)NCCc1ccc(Cl)cc1 | 7.03 |
| Cc1cc2cc(CNC(=S)Nc3ccc(OC(F)F)cc3)ccc2n1C | 16.2 |
| CC(C)OP(=O)(c1ccccc1)c1ccccc1 | 3.07 |
| O=C(CC(Cc1ccccc1)C(=O)O)Nc1cccc(C(F)(F)F)c1 (stereo not shown) | 24.2 |
| COc1ccc(CCNC(=O)c2cc(=O)n(C)c(=O)n2C)cc1OC | 4.78 |
| Cc1cc(NC(=O)c2nn3cccnc3c2Cl)no1 | 0.914 |
| O=C(CSc1ccc(Cl)cc1)Nc1ccc(C2SCCS2)cc1 | 12.1 |
| COC(=O)c1nc(N)sc1-c1ccc(OC)cc1 | 14.1 |
| O=C(/C=C/c1cccc(Oc2ccccc2)c1)N1CCOCC1 | 9.95 |
| Cc1nc2ccc(S(=O)(=O)NCC(=O)NCCN3CCCCC3C)cc2s1 (stereo not shown) | 7.96 |
| CCOc1ccc(NC(=O)CN(C)C(=O)Cc2c[nH]c3ccccc23)cc1OCC | -0.702 |
| O=C(NCC(=O)N1CCN(c2ccccc2)CC1)c1ccco1 | 8.26 |
| COc1cc(C(=O)N(C)Cc2cccc(OC)c2OC)ccc1OCC(=O)Nc1cccc(C(F)(F)F)c1 | -0.309 |
| CC(C)c1ccc(C(CC(=O)c2ccc(Cl)cc2)C(=O)O)cc1 (stereo not shown) | -0.641 |
| CCOC(=O)c1nnn(CC(=O)NC(=O)Nc2cccc(CC)c2)c1C(=O)OCC | 13.3 |
| Cn1c(-c2ccc(F)cc2)cnc1SCC(=O)N1CCCc2ccccc21 | -0.573 |
| CCOc1ccc(N(CC(=O)NCCc2ccc(F)cc2)S(=O)(=O)c2ccccc2)cc1 | 9.44 |

| Structure (SMILES) | hERG current change (%, negative = inhibition) at 1uM [%] |
| --- | --- |
| O=C(NCc1ccco1)c1cc2nc(C3CC3)cc(C(F)(F)F)n2n1 | -0.584 |
| CCNCc1nc2cc(Cl)ccc2c(=O)[nH]1.Cl | 11.9 |
| CC1CC(C)CN(S(=O)(=O)c2ccccc2[N+](=O)[O-])C1 (stereo not shown) | 0.0889 |
| O=C(CC1SC(=Nc2ccccc2)N(CCCCO)C1=O)NCc1ccccc1 (stereo not shown) | -8.78 |
| c1csc(-c2noc(CN3CCOCC3)n2)c1 | 12.7 |
| CC(=O)c1ccc(NC(=O)CCCC(=O)c2ccccc2)cc1 | 14.6 |
| CCCNC(=O)COC(=O)c1cc(-c2ccc(OC)cc2)nc2ccccc12 | 4.2 |
| C=CCNC(=O)c1ccc(N(CC=C)S(C)(=O)=O)cc1 | -0.84 |
| O=C(CN1CCN(S(=O)(=O)c2ccc(Cl)cc2)CC1)NC1CCCC1 | -5.16 |
| Cc1ccc(/C=N/NC(=O)c2ccncc2)o1 | 1.99 |
| CCn1cc(Br)c(C(=O)Nc2cccc(SC)c2)n1 | 13.6 |
| CCN1CCN(Cc2ccc(NC(=O)Nc3cccs3)cc2)CC1 | 9.85 |
| CCCCCCCCOC(=O)c1ccc(N)cc1 | 13.8 |
| C=CCn1c2ccccc2c2nnc(SC(CC)C(=O)Nc3sc4c(c3C#N)CCCC4)nc21 (stereo not shown) | 12.3 |
| Cc1ccc(C)c(S(=O)(=O)NCC(c2ccc3c(c2)OCO3)N2CCOCC2)c1 (stereo not shown) | 2.65 |
| Cc1nc(N2CCOCC2)c(C#N)c(C)c1Br | 6.16 |
| Cl.O=C(CCN1CCN(C/C=C/c2ccccc2)CC1)Nc1ccccc1Cl | -47.6 |
| O=C(CN1CCN(c2ccccn2)CC1)Nc1ccc2ccccc2c1 | 4.71 |
| O=C(c1cccc(S(=O)(=O)Nc2cccc(C(F)(F)F)c2)c1)N1CCCCC1 | 10.3 |
| COc1ccc(-n2nc(C(=O)NCC(=O)N(C)Cc3ccccc3)c3ccccc3c2=O)c(OC)c1 | 12.7 |
| CCOc1ccc(N(CC(=O)Nc2ccc(F)c(F)c2)S(=O)(=O)c2c(C)noc2C)cc1 | 2.37 |
| CC(C)(C)c1cc(C(=O)O)n[nH]1 | 1.94 |
| COc1ccc(N/C=C2\C(=O)CCc3c2oc2cc(Cl)c(O)c(Cl)c32)cc1 | 12 |
